Here are results for 3 compounds from PubChem BioAssay (NCI).

For this test, the system named is NCI-H322M lung. Description: NCI tumour cell line growth inhibition, 48 h.

SMILES strings stand for the structures.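 Interpolation was linear, between the two tested concentrations surrounding the appropriate level; five concentrations were tested over 48 hours in 96-well plates. GI50 marks 50% less growth. TGI: total growth inhibition.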

As to `CC(=O)N(O)CCCCCNC(=O)CCC(=O)N(O)CCCCCNC(=O)CCC(=O)N(O)CCCCCN(CCCCCCCCCC[P+](c1ccccc1)(c1ccccc1)c1ccccc1)CCCCCCCCCC[P+](c1ccccc1)(c1ccccc1)c1ccccc1`, the GI50 was 4.16 µM and the TGI was determined as 16.5 µM.

Turning to `COc1ccc2c(c1)c(CC(=O)[Se]CC#N)c(C)n2C(=O)c1ccc(Cl)cc1`, the GI50 was 2.41 µM and the TGI amounted to 7.4 µM.

For the compound `O=C(Nc1ccccc1)Nc1nc2ccc([N+](=O)[O-])cc2s1`, the GI50 was 2.75 µM and the TGI is 13 µM.
